In PubChem BioAssay AID504832 (National Center for Advancing Translational Sciences (NCATS), 2011):
Hit rate of the full screen: of about 310,000 compounds, about 18,000 (5.8%) were called active. Inconclusive results, whose numbers are uncertain, are shown with a selection of clear calls. Calls follow the shape of the dose curve; as a rule, active = well fitted inhibition curve with a large enough effect; inconclusive = small, poorly fitted or top-dose-only effect, or another doubt; inactive = no such curve, though single readings can be large or run the other way. Potencies of inconclusive entries are left out as doubtful fits.

Assay: Primary qHTS for delayed death inhibitors of the malarial parasite plastid, 48 hour incubation
Details: P. falciparum luciferase growth in erythrocytes; series mostly up to 28.7 µM
Method in brief: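 Read-out is firefly luciferase luminescence from an integrated reporter in P. falciparum, so falling signal marks reduced parasite growth. Infected erythrocytes were at 2% hematocrit and 0.1% parasitemia (final) in Albumax-supplemented RPMI 1640.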
Potency is read from the fitted curve at half-maximal effect; tags tell the direction and shape of the fitted curve.

Question: With `CCC(C)(C)NC(=O)Cc1ccc(Cl)cc1` as the compound, how does the Potency read?
Answer: inactive

Question: With `Clc1ccc(C2=NN=C3COc4ccccc4N3C2)cc1` as the compound, how does the Potency read?
Answer: inactive

Question: Which Potency does the source give for `CCNC(=O)C1CC(=O)N(CCCc2ccccc2)C(=Nc2ccccc2)S1` (configuration not stated) here?
Answer: inconclusive [inhibitor, single point]

Question: For `COc1cc(C(=O)OCCc2cc3ccccc3c(=O)o2)cc(OC)c1OC`, which Potency is on record?
Answer: inconclusive [inhibitor, single point]

Question: With `O=C(OCC(=O)N1CCN(C(=O)c2ccco2)CC1)c1ccc(Cl)c(Cl)c1` as the compound, how does the Potency read?
Answer: inconclusive [inhibitor, single point]

Question: With `COc1cccc(-c2c(C(=O)N/N=C/c3cccs3)nnn2-c2nonc2N)c1` as the compound, how does the Potency read?
Answer: inconclusive [inhibitor, single point]

Question: With `Cc1cc(OC(C)C(=O)NCc2ccccn2)c2c(C)cc(=O)oc2c1` (configuration not stated) as the compound, how does the Potency read?
Answer: active: 1.65 µM

Question: For `OCCC1CN(Cc2nc3c(s2)CCCC3)CCN1CCc1ccccc1` (configuration not stated), which Potency is on record?
Answer: inconclusive [inhibitor, full curve, poor fit]

Question: For `CN1CCN(c2nc(Nc3cccc(C(F)(F)F)c3)nc(N3CCOCC3)n2)CC1`, which Potency is on record?
Answer: active: 2.08 µM

Question: With `N#CCn1c(CN2CCCC2)nc2ccccc2c1=O` as the compound, how does the Potency read?
Answer: inactive

Question: For `Cc1cc(C)cc(NC(=O)C(c2ccccc2)N2CCN(CC(=O)NC3CC3)CC2)c1` (configuration not stated), which Potency is on record?
Answer: active: 5.22 µM

Question: Which Potency does the source give for `O=C(NC(Cc1c[nH]c2ccccc12)C(=O)Nc1ccc(F)c([N+](=O)[O-])c1)c1cccs1` (configuration not stated) here?
Answer: inactive

Question: With `COc1ccccc1N1CCN(C(=O)C2CCN(S(=O)(=O)c3ccc(F)cc3)CC2)CC1` as the compound, how does the Potency read?
Answer: inconclusive [inhibitor, single point]

Question: Which Potency does the source give for `C/C(=N\NC(=S)NCc1ccccc1)c1ccc(C(C)(C)C)cc1` here?
Answer: active: 9.28 µM

Question: With `CC(C(=O)N(C)C1CCCCC1)N1CCC(C(N)=O)CC1` (configuration not stated) as the compound, how does the Potency read?
Answer: inactive

Question: With `Cc1cccc(-c2nnc(SCc3ccc(C#N)cc3)n2Cc2ccco2)c1` as the compound, how does the Potency read?
Answer: inconclusive [inhibitor, single point]

Question: With `S=c1[nH]ncn1/N=C/c1ccccn1` as the compound, how does the Potency read?
Answer: inactive

Question: Which Potency does the source give for `CCC(=O)N(C(=O)CC)N1CCN(c2ccncc2S(=O)(=O)N2CCCCC2)CC1` here?
Answer: inconclusive [inhibitor, single point]

Question: For `COc1ccc(OC)c2c(C)cc(N3CCCCCC3)nc12`, which Potency is on record?
Answer: inactive

Question: Which Potency does the source give for `Cc1c(NC(=O)c2ccc3c(c2)OCO3)c(=O)n(-c2ccccc2)n1C` here?
Answer: inactive

Question: With `O=C(CSc1nc2c(c(=O)n1-c1ccc(Br)cc1)SCC2)Nc1nccs1` as the compound, how does the Potency read?
Answer: inconclusive [inhibitor, partial curve, poor fit]

Question: Which Potency does the source give for `CCN(CC)c1ccc(/C=N/NC(=O)Cc2cccs2)cc1` here?
Answer: inactive

Question: Which Potency does the source give for `O=C(CCCN1C(=O)/C(=C/c2ccccc2Cl)SC1=S)NNC(=O)c1ccccc1` here?
Answer: inconclusive [inhibitor, single point]

Question: For `CNC(=O)c1cc(S(=O)(=O)NCc2ccncc2)ccc1OC`, which Potency is on record?
Answer: inconclusive [inhibitor, single point]

Question: With `C=CCn1c(SCc2cccc(OC)c2)nnc1-c1ccncc1` as the compound, how does the Potency read?
Answer: inconclusive [inhibitor, partial curve]

Question: With `COc1ccc(N2C(=O)C(CC(=O)Nc3ccccc3)N(Cc3ccccn3)C2=S)cc1` (configuration not stated) as the compound, how does the Potency read?
Answer: inconclusive [inhibitor, single point]

Question: For `CCc1nnc(SCC(=O)Nc2ccc(NC(C)=O)cc2)n1-n1cccc1`, which Potency is on record?
Answer: inactive

Question: For `Cc1ccc(S(=O)(=O)N(Cc2ccc(Cl)cc2)c2ccccc2C(=O)NCc2ccco2)cc1`, which Potency is on record?
Answer: active: 6.57 µM

Question: Which Potency does the source give for `CN(CC(=O)Nc1ccc(F)cc1)C(=O)CN1C(=O)NC2(CCCc3ccccc32)C1=O` (configuration not stated) here?
Answer: inconclusive [inhibitor, single point]

Question: Which Potency does the source give for `CN(C)c1ccc(/C=N/NC(=O)c2ccc(CN3CCOCC3)cc2)cc1Br` here?
Answer: inconclusive [inhibitor, partial curve, poor fit]

Question: For `Clc1ccc(C2=NCCn3nc4ccccc4c32)cc1`, which Potency is on record?
Answer: inconclusive [inhibitor, single point]

Question: With `CC1CC(C)CN(CCCNC(=O)CN2C(=O)COc3ccc(S(=O)(=O)N4CCOCC4)cc32)C1` (configuration not stated) as the compound, how does the Potency read?
Answer: inactive

Question: With `COc1ccc(/C=C2/C(=N)N3C(=NC2=O)Sc2cc(S(C)(=O)=O)ccc23)cc1OC` as the compound, how does the Potency read?
Answer: inactive

Question: For `C/C(=N\N=C(/N)SC1CC(=O)N(c2ccccc2)C1=O)c1cccs1` (configuration not stated), which Potency is on record?
Answer: inconclusive [inhibitor, single point]

Question: Which Potency does the source give for `CCOc1ccc(CC2c3cc(OCC)c(OCC)cc3CCN2C(=O)CN2CCN(C)CC2)cc1OCC` (configuration not stated) here?
Answer: inconclusive [inhibitor, full curve]

Question: With `CCN(CC)CCn1c2c(c(SCC(=O)Nc3ccc4c(c3)OCO4)nc1=O)CCC2` as the compound, how does the Potency read?
Answer: inconclusive [inhibitor, partial curve, poor fit]

Question: Which Potency does the source give for `O=C(c1ccc2c(c1)OCO2)N(CC1CCCO1)C1(C(=O)NC2CCCC2)CCCCC1` (configuration not stated) here?
Answer: active: 11.7 µM

Question: With `O=C(NCCC1=CCCCC1)c1cccc(S(=O)(=O)N2CCCCC2)c1` as the compound, how does the Potency read?
Answer: inconclusive [inhibitor, single point]

Question: Which Potency does the source give for `CCC(C)NC(=O)c1ccccc1NC(=O)COc1ccc(OC)cc1` (configuration not stated) here?
Answer: inconclusive [inhibitor, single point]

Question: For `COc1ccccc1NS(=O)(=O)c1cccc(C(=O)N2CCN(Cc3ccc4c(c3)OCO4)CC2)c1`, which Potency is on record?
Answer: inconclusive [inhibitor, partial curve]

Question: For `COc1cccc(NC(=O)C(=O)NCC(c2ccco2)N2CCc3ccccc3C2)c1` (configuration not stated), which Potency is on record?
Answer: active: 11.7 µM

Question: With `Cc1no[n+]([O-])c1COc1ccc(/C=N/n2nnnc2N)cc1` as the compound, how does the Potency read?
Answer: inactive

Question: Which Potency does the source give for `CC(C)Oc1cccc(C(=O)C2CCCN(Cc3cccn3-c3ccccn3)C2)c1` (configuration not stated) here?
Answer: inconclusive [inhibitor, single point]

Question: Which Potency does the source give for `O=C(CSc1nc(O)cc(=O)n1-c1ccccc1)NC1CCCCC1` here?
Answer: active: 2.62 µM

Question: For `CCOc1ccc(-c2n[nH]c(C)c2Oc2ccc(OC)cc2)c(O)c1`, which Potency is on record?
Answer: active: 13.1 µM

Question: Which Potency does the source give for `CSc1n[nH]c(/N=C/c2oc(O)c3ccccc23)n1` here?
Answer: inactive

Question: Which Potency does the source give for `COc1ccc(N2CCN(C(c3ccc4ncccc4c3)c3nnnn3C(C)C)CC2)cc1` (configuration not stated) here?
Answer: inactive
